From PubChem BioAssay AID485281 (National Center for Advancing Translational Sciences (NCATS), 2010)
In all, about 350,000 compounds went through this assay and about 260 (0.074%) were called active. The shares of active, inactive and inconclusive entries below differ from those in the screen. Calls come from the whole dose curve; as a rule, active = well fitted inhibition curve with a large enough effect; inconclusive = small, poorly fitted or top-dose-only effect; inactive = no such curve, though single readings can be large or run the other way. Where the call is inconclusive, the potency comes from a doubtful curve fit.
% is set by controls: 0 for no effect and ±100 for the full control effect; potency is the fitted concentration of half-maximal effect; tags give direction and shape of the fitted curve.
Note: nearly all actives have a fitted effect of over 20% in size.

These compounds were tested against Ferritin light chain (Equus caballus) (UniProt P02791) (assay: qHTS Assay for Identification of Novel General Anesthetics). Settings: apoferritin/1-aminoanthracene competitive binding, fluorescence; activity change, negative = displacement: at 77.5 µM (top of the series).
Chain of UniProt P02791 (P02791 whole entry, looked up): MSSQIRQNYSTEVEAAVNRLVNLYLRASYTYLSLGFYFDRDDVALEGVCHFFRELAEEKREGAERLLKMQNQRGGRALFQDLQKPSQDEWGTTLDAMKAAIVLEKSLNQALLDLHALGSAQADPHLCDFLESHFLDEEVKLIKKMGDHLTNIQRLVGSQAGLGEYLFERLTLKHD
Method in brief: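 Apoferritin-based anesthetic binding model; compound displacement of fluorescent 1-AMA measured as endpoint fluorescence after 10 minutes at room temperature, scaled to free-ligand and complex controls.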
With Cc1ccc(CN=c2c([N+](=O)[O-])nn(-c3cccc(Cl)c3)n2O)cc1 the Potency was inconclusive: 39.8 µM [inhibitor, partial curve].
With Cc1nn(-c2ccc(Cl)c(Cl)c2Cl)c(=O)c2ccccc12 the Potency was active: 17.8 µM.
For COc1cc(O)c(C(CC(=O)N2CCCCC2)c2ccc3c(c2)OCO3)c(OC)c1 (stereo not drawn), the Potency was inconclusive: 15.8 µM [inhibitor, partial curve].
With N/C(CS(=O)(=O)c1ccccc1)=N\OC(=O)c1ccc(F)cc1 the “activity change, negative = displacement” value was inactive: -10.2%.
O=C(CN1CCCCCC1)Nc1c(Cl)cc(Cl)cc1Cl was tested, and the Potency was inconclusive: 31.6 µM [inhibitor, partial curve].
In the case of CN(C)c1nc(NCc2ccccc2)nc(SCC(=O)Nc2ccc(Cl)c(Cl)c2)n1, the Potency is reported as inconclusive: 3.55 µM [inhibitor, partial curve].
CC(CNC(=O)C1CCN(C(=O)N2CCOc3ccc(Cl)cc32)CC1)c1ccccc1 (stereo not drawn) was tested, and the Potency was inconclusive: 20 µM [inhibitor, partial curve].
For O=C(COC(=O)CCc1ccccc1)NC12CC3CC(CC(C3)C1)C2, the Potency was inconclusive: 7.94 µM [inhibitor, partial curve].
With Cc1cc(-c2ccccc2)nc(-c2ccccc2)c1C the Potency was inconclusive: 31.6 µM [inhibitor, partial curve].
With Cc1cccc(-c2nc3c(cnn3-c3ccccc3)c(=O)n2-c2ccc(Br)cc2)c1 the Potency was inconclusive: 11.2 µM [inhibitor, single point].
With Cc1ccc(C(=O)c2cc3ccccc3o2)cc1C the Potency was inconclusive: 39.8 µM [inhibitor, partial curve].
CC1Cn2c(C(=O)NCc3cccc(Br)c3)cc3cccc(c32)S1 (stereo not drawn) was tested, and the “activity change, negative = displacement” value was inactive: 55.9%.
O=C1N/C(=N/Nc2ccccc2)S/C1=C\c1ccccc1 was tested, and the Potency was inconclusive: 14.1 µM [inhibitor, partial curve].
With COCCNC(=O)CN(Cc1ccccc1)S(=O)(=O)c1ccc2nc(C)sc2c1 the “activity change, negative = displacement” value was inactive: 0.201%.
For CC(C)CNC(=O)Nc1ccc(F)c(Cl)c1, the Potency was inconclusive: 35.5 µM [inhibitor, partial curve].
With Cc1cc(-n2c(C)cc(C(=O)CCl)c2C)no1 the “activity change, negative = displacement” value was inactive: -4.51%.
C/C=C(/C)C(=O)Nc1cccc(C2=NOC3(C2)C[C@H](C(N)=O)N(C(=O)COc2ccc(Cl)cc2)C3)c1 (stereo partly drawn) was tested, and the Potency was inconclusive: 20 µM [inhibitor, partial curve].
With COc1ccc(-c2nnc(SCC(=O)OC3CCCCC3)o2)cc1OC the Potency was inconclusive: 3.55 µM [inhibitor, partial curve].
In the case of CCOC(=O)COn1c(=O)c(-c2ccc(F)cc2)[n+]([O-])c2ccccc21, the “activity change, negative = displacement” value is reported as inactive: 8.31%.
For CCc1ccc(Nc2n[n+](-c3ccccc3)c(-c3ccc(N(CC)CC)cc3)s2)cc1, the Potency was inconclusive: 12.6 µM [inhibitor, partial curve].
For O=C(Nc1ccc2nccnc2c1)c1cnccn1, the “activity change, negative = displacement” value was inactive: -6.11%.
For CN(C)/C=C1/N=C(c2ccccc2)OC1=O, the Potency was inconclusive: 44.7 µM [inhibitor, single point].
In the case of CCOc1ccc(NC(=O)c2c(Nc3ccccc3C)sc(C(=O)c3ccc(Cl)cc3)c2N)cc1, the Potency is reported as inconclusive: 5.01 µM [inhibitor, full curve, poor fit].
For COc1ccccc1Nc1nc(-c2sc(N)nc2C)cs1, the Potency was inconclusive: 50.1 µM [inhibitor, single point].
With CSc1nncn1/N=C/c1cc(Cl)ccc1F the Potency was inconclusive: 50.1 µM [inhibitor, single point].
For C/C=C/c1ccc(OCC(O)CNCCc2ccc(OC)cc2)c(OC)c1 (stereo not drawn), the “activity change, negative = displacement” value was inactive: -9.39%.
With Cc1ccc(CNc2ccc(N3CCOCC3)cc2)s1 the Potency was inconclusive: 25.1 µM [inhibitor, partial curve].
In the case of C/C(=C1/SC(N2CCCC2)=NC1=O)c1ccc(Br)cc1, the Potency is reported as inconclusive: 31.6 µM [inhibitor, partial curve].
O=C1NCCc2c1[nH]c1c(Cl)ccc(Cl)c21 was tested, and the “activity change, negative = displacement” value was inactive: -15.4%.
For Cc1ccc(NC(=O)NC(=O)N(C(C)C)S(=O)(=O)c2ccc(C)cc2)cc1, the Potency was inconclusive: 25.1 µM [inhibitor, partial curve].
CC1=C(C(=O)OCC(Cl)(Cl)Cl)N2C(=O)C(NC(=O)Cc3ccccc3)C2SC1 (stereo not drawn) was tested, and the Potency was inconclusive: 7.94 µM [inhibitor, full curve, poor fit].
In the case of Cc1c(C(=O)Nc2ccc(Nc3ccccc3)cc2)cccc1[N+](=O)[O-], the Potency is reported as inconclusive: 15.8 µM [inhibitor, partial curve].
COc1ccc2occ(C(=O)c3coc4ccc(O)c(CN(C)C)c34)c2c1 was tested, and the Potency was inconclusive: 44.7 µM [inhibitor, single point].
In the case of COc1cc(-c2nc(-c3ccccn3)no2)cc(OC)c1OC, the “activity change, negative = displacement” value is reported as inactive: -6.15%.
For CCOC(=O)c1cnc(SC)nc1Sc1ccccc1Cl, the Potency was inconclusive: 50.1 µM [inhibitor, partial curve].
With O=C(c1ccc2c(c1)OCO2)N(Cc1ccco1)C1(C(=O)NC2CCCCC2)CCCCC1 the Potency was inconclusive: 25.1 µM [inhibitor, partial curve].
With COc1ccc(CCNC(=O)Cn2cnc3sc(C)c(-c4ccc(F)cc4)c3c2=O)cc1OC the Potency was inconclusive: 5.62 µM [inhibitor, full curve].
COc1ccc(NC2=CC(=O)CC(c3ccccc3)C2)c(OC)c1 (stereo not drawn) was tested, and the Potency was inconclusive: 20 µM [inhibitor, partial curve].
In the case of Nc1ccc(Cl)c(S(=O)(=O)Nc2ccccc2Cl)c1, the Potency is reported as inconclusive: 35.5 µM [inhibitor, partial curve].
With Cn1c(=O)c(=O)n(C)c2cc(S(=O)(=O)Nc3ccc(OC(F)(F)F)cc3)ccc21 the Potency was inconclusive: 44.7 µM [inhibitor, partial curve].
In the case of CC(NC(=O)COC(=O)CCc1ccc(S(=O)(=O)N2CCOCC2)cc1)C1CC2CCC1C2 (stereo not drawn), the Potency is reported as inconclusive: 50.1 µM [inhibitor, single point].
For O=C1C=CC(=O)N1CCNc1ncc(C(F)(F)F)cc1Cl, the Potency was inconclusive: 14.1 µM [inhibitor, partial curve].
With COc1ccc(C2=Nn3c(nnc3-c3ccccc3C)SC2)cc1 the Potency was inconclusive: 39.8 µM [inhibitor, partial curve].
